The text below walks through data of PMC9411157.

Results are given in words; binding and its absence hold for the method and conditions named. In cells and extracts the contact can be indirect. Some entries that bind do so weakly or less than the wild type. Sequences can lack the tags named with a protein.

Test [1] has as its target T1, Trq2-huCldn2 (Turquoise2-tagged human claudin-2) (human) (UniProt P57739).
T1 sequence: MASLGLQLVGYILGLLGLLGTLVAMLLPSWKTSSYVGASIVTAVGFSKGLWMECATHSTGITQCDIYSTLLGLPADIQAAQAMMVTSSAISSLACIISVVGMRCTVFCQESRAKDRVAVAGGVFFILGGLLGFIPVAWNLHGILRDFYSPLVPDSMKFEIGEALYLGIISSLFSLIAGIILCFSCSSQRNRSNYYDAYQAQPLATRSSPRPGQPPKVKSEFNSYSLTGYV
The test is described as follows: FRET or BRET; spectral FRET in living COS-7 cells co-transfected with pTrq2-Cldn (donor) and pYFP-Cldn (acceptor), plasmid ratio 1:5; excitation 405 nm; FRET ratio = YFP emission (530 nm) / Trq2 emission (478 nm).

Test [2] addresses T1, Trq2-huCldn2 (Turquoise2-tagged human claudin-2) (human). The test is described as follows: FRET or BRET; spectral FRET in living HEK293 cells co-transfected with pTrq2-Cldn (donor) and pYFP-Cldn (acceptor); ROIs at the contact of two neighbouring cells expressing both claudins; two-photon excitation 810 nm; FRET ratio = YFP emission (532 nm) / Trq2 emission (468 nm); plasmid ratio 1:1 for Trq2-Cldn3, 1:5 for Trq2-Cldn2 and Trq2-Cldn2^ECL10a. For orientation: Bioluminescence resonance energy transfer reports proximity on the nanometre scale.

Test [3] has as its target Trq2-huCldn3 (Turquoise2-tagged human claudin-3) (human) (UniProt O15551). The description is as above.
Test [4] addresses T2, Trq2-huCldn2^ECL10a (Turquoise2-tagged human claudin-2 with both extracellular loops replaced by those of claudin-10a) (human) (UniProt P57739).
T2 sequence: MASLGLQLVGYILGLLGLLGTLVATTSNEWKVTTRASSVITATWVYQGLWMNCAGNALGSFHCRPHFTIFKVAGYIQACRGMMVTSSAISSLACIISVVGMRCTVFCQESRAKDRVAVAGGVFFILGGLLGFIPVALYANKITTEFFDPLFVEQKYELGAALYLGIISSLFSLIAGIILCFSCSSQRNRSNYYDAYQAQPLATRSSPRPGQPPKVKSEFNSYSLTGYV
The test is described as above.

Test [5] has as its target T3, Trq2-huCldn2 (Turquoise2-tagged human claudin-2) (human), P57739.
T3 chain: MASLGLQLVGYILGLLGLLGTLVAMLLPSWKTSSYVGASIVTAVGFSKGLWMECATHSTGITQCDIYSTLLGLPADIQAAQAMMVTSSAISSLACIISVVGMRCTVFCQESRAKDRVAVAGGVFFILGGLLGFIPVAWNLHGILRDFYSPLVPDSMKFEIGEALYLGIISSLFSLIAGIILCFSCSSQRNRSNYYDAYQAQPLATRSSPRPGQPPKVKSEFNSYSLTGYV
Described as above. The following applies: remark: other sources report otherwise.

The target of test [6] is T4, Trq2-huCldn3 (Turquoise2-tagged human claudin-3) (human), O15551.
T4 chain: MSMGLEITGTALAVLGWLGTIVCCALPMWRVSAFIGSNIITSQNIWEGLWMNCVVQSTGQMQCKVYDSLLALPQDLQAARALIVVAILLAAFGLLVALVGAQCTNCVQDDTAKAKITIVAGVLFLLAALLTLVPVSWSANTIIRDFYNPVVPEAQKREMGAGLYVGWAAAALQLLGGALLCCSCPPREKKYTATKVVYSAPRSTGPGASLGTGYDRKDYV
The description is as above. The note with it: remark: other sources report otherwise.

The target of test [7] is Trq2-huCldn3 (Turquoise2-tagged human claudin-3) (human) (UniProt O15551). The test is described as follows: FRET or BRET; spectral FRET in living COS-7 cells co-transfected with pTrq2-Cldn (donor) and pYFP-Cldn (acceptor), plasmid ratio 1:5; excitation 405 nm; FRET ratio = YFP emission (530 nm) / Trq2 emission (478 nm).

B1: YFP-huCldn10a (YFP-tagged human claudin-10a) (protein, UniProt P78369-2 1-226)
chain: MSRAQIWALVSGVGGFGALVAATTSNEWKVTTRASSVITATWVYQGLWMNCAGNALGSFHCRPHFTIFKVAGYIQACRGLMIAAVSLGFFGSIFALFGMKCTKVGGSDKAKAKIACLAGIVFILSGLCSMTGCSLYANKITTEFFDPLFVEQKYELGAALFIGWAGASLCIIGGVIFCFSISDNNKTPRYTYNGATSVMSSRTKYHGGEDFKTTNPSKQFDKNAYV
Take B1: the binding entry in test [1] and in test [2] was “no binding” each time.

B2: YFP-huCldn2 (YFP-tagged human claudin-2) (protein, UniProt P57739 1-230)
chain: MASLGLQLVGYILGLLGLLGTLVAMLLPSWKTSSYVGASIVTAVGFSKGLWMECATHSTGITQCDIYSTLLGLPADIQAAQAMMVTSSAISSLACIISVVGMRCTVFCQESRAKDRVAVAGGVFFILGGLLGFIPVAWNLHGILRDFYSPLVPDSMKFEIGEALYLGIISSLFSLIAGIILCFSCSSQRNRSNYYDAYQAQPLATRSSPRPGQPPKVKSEFNSYSLTGYV
Regarding B2, the binding result in test [3] is recorded as “binds weakly”; in test [4] it was “binds”.

B3: Trq2-huCldn2 (Turquoise2-tagged human claudin-2), P57739 1-230 (protein)
chain: MASLGLQLVGYILGLLGLLGTLVAMLLPSWKTSSYVGASIVTAVGFSKGLWMECATHSTGITQCDIYSTLLGLPADIQAAQAMMVTSSAISSLACIISVVGMRCTVFCQESRAKDRVAVAGGVFFILGGLLGFIPVAWNLHGILRDFYSPLVPDSMKFEIGEALYLGIISSLFSLIAGIILCFSCSSQRNRSNYYDAYQAQPLATRSSPRPGQPPKVKSEFNSYSLTGYV
B3: the binding entry in test [5] was “binds”.

B4: Trq2-huCldn3 (Turquoise2-tagged human claudin-3), O15551 1-220 (protein)
chain: MSMGLEITGTALAVLGWLGTIVCCALPMWRVSAFIGSNIITSQNIWEGLWMNCVVQSTGQMQCKVYDSLLALPQDLQAARALIVVAILLAAFGLLVALVGAQCTNCVQDDTAKAKITIVAGVLFLLAALLTLVPVSWSANTIIRDFYNPVVPEAQKREMGAGLYVGWAAAALQLLGGALLCCSCPPREKKYTATKVVYSAPRSTGPGASLGTGYDRKDYV
Take B4: the binding entry in test [6] is given as “binds”.

B5: YFP-huCldn15 (YFP-tagged human claudin-15) (protein, UniProt P56746 1-228)
chain: MSMAVETFGFFMATVGLLMLGVTLPNSYWRVSTVHGNVITTNTIFENLWFSCATDSLGVYNCWEFPSMLALSGYIQACRALMITAILLGFLGLLLGIAGLRCTNIGGLELSRKAKLAATAGALHILAGICGMVAISWYAFNITRDFFDPLYPGTKYELGPALYLGWSASLISILGGLCLCSACCCGSDEDPAASARRPYQAPVSVMPVATSDQEGDSSFGKYGRNAYV
For the molecule B5, the binding result in test [7] and in test [3] was “no binding” throughout.
